According to PubChem BioAssay AID686979 (National Center for Advancing Translational Sciences (NCATS), 2013):
About 50,000 (12%) of roughly 420,000 compounds were called active. This list was built around the results that the source calls inconclusive (neither active nor inactive); the mix of calls is not that of the screen. The call rests on the fitted dose curve; in most records, active means well fitted inhibition curve with a large enough effect; inconclusive means small, poorly fitted or top-dose-only effect; inactive means flat fitted curve, though single readings scatter. No potency is given beside an inconclusive call; the fits are too rough.

Assay: qHTS for Inhibitors of human tyrosyl-DNA phosphodiesterase 1 (TDP1): qHTS in cells in presence of CPT; further: nearly all actives have a fitted effect of over 55% in size
Conditions: chicken DT40 Tdp1-/-;hTDP1 cells + 20 nM CPT, ATP luminescence, 48 h; activity change, negative = growth inhibition: at 46.2 µM (top of the series) unless noted
How it was run: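 Cell growth measured by CellTiter-Glo luminescence after a minimum 48 h, 37 C compound exposure with 20 nM CPT in Tdp1-knockout DT40 cells stably expressing hTDP1, seeded 400/well; qHTS titration format.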
On the % scale 0 is the no-effect control and ±100 the full control effect; potency means the concentration at half of the fitted maximal effect; tags describe the fitted curve by direction and shape.

With `Cc1cc(Br)c2c(c1)=C(c1sc(N3CCCCCC3)nc1O)C(=O)N=2` as the compound, how does the Potency read?
The Potency was inconclusive [inhibitor, single point].

Which Potency does the source give for `COc1ccc(CCNC(=O)/C(C#N)=C2\N=C(NC(=O)c3ccco3)c3ccccc32)cc1` here?
Its Potency is inconclusive [inhibitor, single point].

For `CC[C@H](C)/C=C(C)/C=C/C(=O)Cc1cc(O)c(C)c(O)c1C=O`, which Potency is on record?
The Potency was inconclusive [inhibitor, single point].

Which Potency does the source give for `CCOC(=O)c1c(NC(=O)Cn2nnc(-c3ccc(Cl)cc3)n2)sc(CC)c1C` here?
Its Potency is inconclusive [inhibitor, single point].

With `Cc1cc(C)cc(-n2ccnc2SCC(=O)Nc2nc3ccccc3s2)c1` as the compound, how does the Potency read?
Its Potency is active: 18.4 µM.

Which “activity change, negative = growth inhibition” value does the source give for `NC(=O)c1ccccc1NC(=O)c1cccc(C(=O)Nc2ccccc2C(N)=O)n1` here?
The value was inactive: -16.2%.

For `CCOC(=O)C1CCN(C(=O)CNC(=O)c2nn(-c3ccc(OC)cc3)c(=O)c3ccccc23)CC1`, which Potency is on record?
Its Potency is inconclusive [inhibitor, single point].

For `CC(NC(=O)c1ccc2c(c1)OCO2)C(c1cccs1)N1CCOCC1` (stereo unspecified), which Potency is on record?
Its Potency is inconclusive [inhibitor, single point].

For `CCOCCCNC(=S)N1CCCN(c2nc3c(C)c(C)ccc3cc2C#N)CC1`, which Potency is on record?
The Potency was inconclusive [inhibitor, single point].

For `CCC(C(=O)NCc1ccccc1OC)n1nc(C)n2c(cc3sccc32)c1=O` (stereo unspecified), which Potency is on record?
The Potency was inconclusive [inhibitor, single point].

With `O=C(NCCc1ccccc1Cl)c1ccc2nc3ccccc3c(=O)n2c1` as the compound, how does the Potency read?
The Potency was active: 14.6 µM.

With `COc1ccc(NC2CCCN(C(=O)c3cccnc3)C2)cc1` (stereo unspecified) as the compound, how does the “activity change, negative = growth inhibition” value read?
Its value is inactive: 1.72%.

Which “activity change, negative = growth inhibition” value does the source give for `COc1ccc(Br)c2c1C(=O)CC2` here?
Its value is inactive: 5.78%.

For `COc1ccc(/C(C)=N/NC(=O)CNC(=O)CCc2ccccc2)c(OC)c1`, which Potency is on record?
The Potency was inconclusive [inhibitor, partial curve, poor fit].

For `Cc1cccc(OCC(=O)O/N=C(\N)Cc2ccc(Cl)cc2)c1`, which “activity change, negative = growth inhibition” value is on record?
Its value is inactive: -28.5%.

With `CCN(CC(=O)Nc1ccc(Br)c(C)c1)CC(=O)NC(C)C` as the compound, how does the Potency read?
The Potency was inconclusive [inhibitor, single point].

Which Potency does the source give for `Cc1[nH]c2c(C)cccc2c1CCNS(=O)(=O)c1cccc([N+](=O)[O-])c1` here?
Its Potency is inconclusive [inhibitor, single point].

With `CC1=NN(C(=O)c2ccc(Cn3cc([N+](=O)[O-])cn3)cc2)C(O)(C(F)(F)F)C1` (stereo unspecified) as the compound, how does the Potency read?
The Potency was active: 1.84 µM.

With `CC(=O)c1c(COC(=O)c2ccccc2Cl)nc2ccccc2[n+]1[O-]` as the compound, how does the “activity change, negative = growth inhibition” value read?
Its value is inactive: -1.8%.

Which “activity change, negative = growth inhibition” value does the source give for `COc1ccc(C(=O)Nc2ccccn2)cc1` here?
Its value is inactive: 5.95%.

For `COCCCC1CCN(C(=O)C2CCC(=O)N(CCCc3ccccc3)C2)CC1` (stereo unspecified), which Potency is on record?
The Potency was inconclusive [inhibitor, single point].

Which Potency does the source give for `Cc1ccc(S(=O)(=O)CCc2nnc(NC(=O)c3ccccn3)s2)cc1` here?
Its Potency is inconclusive [inhibitor, single point].

With `Clc1ccc(Nc2nc(-c3cccs3)cs2)nc1` as the compound, how does the Potency read?
The Potency was inconclusive [inhibitor, single point].

Which Potency does the source give for `NCC(c1ccccc1Cl)c1c[nH]c2ccccc12` (stereo unspecified) here?
The Potency was active: 5.17 µM.

For `COc1ccc2nc(NC(=O)C3CCN(S(=O)(=O)c4cccs4)CC3)sc2c1`, which Potency is on record?
Its Potency is active: 23.1 µM.

For `Cc1cccc(NC(=O)/C=C/c2cccs2)n1`, which “activity change, negative = growth inhibition” value is on record?
Its value is inactive: -12.6%.

Which Potency does the source give for `O=C(CN1CCOCC1)Nc1nc(-c2ccc(Cl)cc2)cs1` here?
Its Potency is active: 16.4 µM.

For `COc1ccc(NC(=O)c2cc(Br)c(Br)s2)cn1`, which “activity change, negative = growth inhibition” value is on record?
Its value is inactive: 0.134%.

Which Potency does the source give for `O=C(CSc1nn(-c2ccc(Cl)cc2)c(=S)s1)NCC1CCCO1` (stereo unspecified) here?
The Potency was inconclusive [inhibitor, single point].

For `Cc1ccc(NCc2nnc(SCC(=O)c3ccccc3)n2Cc2ccco2)c(C)c1`, which Potency is on record?
The Potency was inconclusive [inhibitor, partial curve, poor fit].

With `FC(F)(F)c1cccc(Nc2nc(N3CCOCC3)nc(N3CCOCC3)n2)c1` as the compound, how does the Potency read?
The Potency was active: 13 µM.

With `O=C(NC(NC1CCS(=O)(=O)C1)C(Cl)(Cl)Cl)c1ccc(Br)cc1` (stereo unspecified) as the compound, how does the Potency read?
The Potency was active: 8.2 µM.

With `O=[N+]([O-])c1cccc2ccc(/C=C/c3ccc(F)cc3)nc12` as the compound, how does the Potency read?
Its Potency is inconclusive [inhibitor, single point].

With `Cc1ccc([C@H]2C[C@@H](O)[C@H](n3cc(COC(=O)c4ccccc4)nn3)CN2C(=O)c2cccs2)cc1` as the compound, how does the Potency read?
Its Potency is inconclusive [inhibitor, single point].

With `Cc1ccc(Cl)cc1NC(=O)C(=O)N1CCCCC1` as the compound, how does the “activity change, negative = growth inhibition” value read?
Its value is inactive: -1.19%.

With `CC(C)Oc1ccc(CNC(=O)c2ccc(NC(=O)N3CCSc4ncccc43)cc2)cc1` as the compound, how does the Potency read?
The Potency was inconclusive [inhibitor, single point].

Which “activity change, negative = growth inhibition” value does the source give for `CCOCc1nnc(NC(=O)c2ccc3c(c2)OCO3)s1` here?
The value was inactive: 1.82%.

Which Potency does the source give for `COc1ccccc1NC(=O)C(=O)NNC(=O)c1ccco1` here?
Its Potency is inconclusive [inhibitor, partial curve].

With `CCOc1cc(/C=N/NC(=O)COc2cccc(C)c2)ccc1OC(=O)c1cccs1` as the compound, how does the Potency read?
The Potency was inconclusive [inhibitor, partial curve].

Which Potency does the source give for `COc1ccc(-c2oc3ccc(-c4cc(OC)c(OC)c(OC)c4)cc3c2C#Cc2ccccn2)cc1` here?
Its Potency is active: 18.4 µM.

Which Potency does the source give for `O=c1c(CCc2ccccc2)nc2cncnc2n1Cc1ccccc1` here?
Its Potency is inconclusive [inhibitor, single point].

With `CC(C)(C)n1cnc2cc(NCc3ccccc3Cl)ccc21` as the compound, how does the Potency read?
Its Potency is inconclusive [inhibitor, single point].

For `COc1cccc(C(NC(C)=O)c2nc(-c3cccc(C#N)c3)cs2)c1` (stereo unspecified), which Potency is on record?
The Potency was active: 29.1 µM.

For `CN(C)c1ccc(CNC(=O)C2CCN(S(=O)(=O)c3ccc4c(ccn4C)c3)CC2)cc1`, which Potency is on record?
The Potency was inconclusive [inhibitor, partial curve, poor fit].

With `CC1CCN(Cc2c(C(=O)N/N=C/c3ccc(C(C)(C)C)cc3)nnn2-c2nonc2N)CC1` as the compound, how does the Potency read?
Its Potency is active: 13 µM.

With `CC(C)(C)NC(=O)NC(=O)COC(=O)CNC(=O)c1cc(Cl)cc([N+](=O)[O-])c1` as the compound, how does the “activity change, negative = growth inhibition” value read?
Its value is inactive: -18.2%.
